{
  "source": "PubChem BioAssay AID686979",
  "about": "(National Center for Advancing Translational Sciences (NCATS), 2013)",
  "note": "Where “and” joins values, the source holds several entries; their conditions need not be identical. Equal entries are not always repeated. Screen size: about 420,000 compounds; about 50,000 (12%) were called active. This list was built around the results that the source calls inconclusive (neither active nor inactive); the mix of calls is not that of the screen. Calls follow the shape of the dose curve; as a rule, active = well fitted inhibition curve with a large enough effect; inconclusive = small, poorly fitted or top-dose-only effect; inactive = flat fitted curve, though single readings scatter. Potencies beside an inconclusive call are fits to weak or partial responses and may not hold up. % is scaled to controls: 0 for no effect and ±100 for the full control effect; potency is read from the fitted curve at half-maximal effect; tags tell the direction and shape of the fitted curve.",
  "data": [
    {"test": "qHTS for Inhibitors of human tyrosyl-DNA phosphodiesterase 1 (TDP1): qHTS in cells in presence of CPT; also: nearly all actives have a fitted effect of over 55% in size", "conditions": "chicken DT40 Tdp1-/-;hTDP1 cells + 20 nM CPT, ATP luminescence, 48 h; activity change, negative = growth inhibition: at 46.2 µM (top of the series) unless noted", "outline": "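Chicken DT40 Tdp1-/- cells complemented with human TDP1, 400 cells/well, exposed to compounds plus 20 nM camptothecin for at least 48 h at 37 C; viability read as ATP content by CellTiter-Glo luminescence.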", "values": [
      {"smiles": "Cc1nnc(SCC(=O)NC2CCS(=O)(=O)C2)n1Cc1ccccc1", "note": "(configuration not stated)", "activity change, negative = growth inhibition": "inconclusive: 4.21% [inhibitor]"},
      {"smiles": "COc1ccc(Br)c(-c2nc(CS(=O)(=O)c3ccc(F)cc3)no2)c1", "Potency": "inconclusive: 29.1 µM [inhibitor, single point]"},
      {"smiles": "O=C(c1ccccc1Cl)N1CCCC(c2nc3c(nnn3Cc3ccccc3)c(=O)[nH]2)C1", "note": "(configuration not stated)", "Potency": "inconclusive: 25.9 µM [inhibitor, single point]"},
      {"smiles": "C=CCn1c(=O)c2ccccc2n2c(Sc3nnnn3-c3ccccc3)nnc12", "Potency": "inconclusive: 14.6 µM [inhibitor, partial curve, poor fit]"},
      {"smiles": "Nc1cc2c(cc1[N+](=O)[O-])-c1ccccc1C2=NO", "Potency": "active: 20.6 µM"},
      {"smiles": "Cc1ccc2cc(C(c3nnnn3C3CCCC3)N3CCN(c4ccc(F)cc4)CC3)c(=O)[nH]c2c1", "note": "(configuration not stated)", "Potency": "inconclusive: 20.6 µM [inhibitor, single point]"},
      {"smiles": "CC(=O)N1C[C@H]2CON(C)[C@H]2C[C@H]1c1cccc(N2CCOCC2)c1", "activity change, negative = growth inhibition": "inactive: -2.11%"},
      {"smiles": "COc1cc(NC(=O)NCC2CCN(Cc3ccc(C)cc3)CC2)cc(OC)c1OC", "Potency": "inactive and inconclusive: 23.1 µM [inhibitor, single point]"},
      {"smiles": "COc1cccc(C2CC(c3ccc(Cl)cc3)Nc3nc(N)nn32)c1", "note": "(configuration not stated)", "Potency": "inconclusive: 13 µM [inhibitor, partial curve]"},
      {"smiles": "COCCn1c(C)cc(C2=NNC(=Nc3ccc(OC)cc3)SC2)c1C", "Potency": "active: 23.1 µM"},
      {"smiles": "COc1ccc([N+](=O)[O-])cc1NC(=O)c1ccc(C)o1", "activity change, negative = growth inhibition": "inactive: 9.23%"},
      {"smiles": "O=c1c(Oc2ccccc2Br)c(C(F)(F)F)oc2c(CN3CCCC3)c(O)ccc12", "Potency": "inconclusive: 32.6 µM [inhibitor, single point]"},
      {"smiles": "Cc1ccc(N2CCN(C(=O)c3c(C)oc4ncnc(N5CCOCC5)c34)CC2)c(C)c1", "Potency": "inconclusive: 18.4 µM [inhibitor, single point]"},
      {"smiles": "Cc1ccc(C)c(Nc2cc(C(=O)NCCCN(C)C3CCCCC3)c3ccccc3n2)c1", "Potency": "inconclusive: 23.1 µM [inhibitor, single point]"},
      {"smiles": "CC(=O)N1CCN(S(=O)(=O)c2cccc(C(=O)Nc3ccc(F)c(F)c3)c2)CC1", "Potency": "inconclusive: 7.31 µM [inhibitor, partial curve]"},
      {"smiles": "CCOC(=O)CN1C(=O)C(O)(C2CCc3ccccc3C2=O)c2ccccc21", "note": "(configuration not stated)", "Potency": "inconclusive: 25.9 µM [inhibitor, single point]"},
      {"smiles": "CC1(C2CC2)NC(=O)N(CC(=O)Nc2ccccc2F)C1=O", "note": "(configuration not stated)", "activity change, negative = growth inhibition": "inactive: -18.1%"},
      {"smiles": "C[N+](C)(C)CC(O)CC(=O)[O-]", "note": "(configuration not stated)", "activity change, negative = growth inhibition": "inactive: -22.1%"},
      {"smiles": "COc1ccc(OC)c(NC(=O)c2ccc(-n3cccn3)nc2)c1", "Potency": "inconclusive: 23.1 µM [inhibitor, partial curve]"},
      {"smiles": "O=C(Nc1ccccc1)Nc1ccncc1", "Potency": "inconclusive: 25.9 µM [inhibitor, single point]"},
      {"smiles": "CCN(C(=O)COC(=O)/C=C/c1cccc(Cl)c1)c1c(N)n(Cc2ccccc2)c(=O)[nH]c1=O", "Potency": "active: 23.1 µM"},
      {"smiles": "CCC1CCCCN1Cc1nc2c(c(=O)n(C)c(=O)n2C)n1CC(C)C", "note": "(configuration not stated)", "Potency": "inconclusive: 23.1 µM [inhibitor, partial curve, poor fit]"},
      {"smiles": "O=c1[nH]c(=S)[nH]c2c1C(c1ccc(Cl)cc1)OC(CCc1ccccc1)C2", "note": "(configuration not stated)", "Potency": "inconclusive: 29.1 µM [inhibitor, single point]"},
      {"smiles": "Cc1ccc(CN2CCCn3nc(C(=O)NCc4cc(C)ccc4C)cc3C2=O)cc1", "Potency": "active: 14.6 µM"},
      {"smiles": "COc1cc(C)c(Cl)c(C)c1S(=O)(=O)NC1CC(C)(C)NC(C)(C)C1", "Potency": "inconclusive: 23.1 µM [inhibitor, single point]"},
      {"smiles": "CC(=O)NCCC(=O)Nc1nc(-c2c[nH]c3ccccc23)cs1", "Potency": "inconclusive: 29.1 µM [inhibitor, single point]"},
      {"smiles": "O=C(CCCl)Nc1cc(SCCO)cc([N+](=O)[O-])c1", "Potency": "inconclusive: 29.1 µM [inhibitor, single point]"},
      {"smiles": "O=C(NCCO)c1ccc(CSc2nc3ccccc3[nH]2)cc1", "activity change, negative = growth inhibition": "inactive: -24.9%"},
      {"smiles": "Cc1cccc(CCN(C(=O)c2snc(C(N)=O)c2N)C(C(=O)NCC2CCCO2)c2ccc(F)cc2)c1", "note": "(configuration not stated)", "Potency": "inconclusive: 29.1 µM [inhibitor, single point]"},
      {"smiles": "CC(C)(C)C(=O)NCCN1C(=O)S/C(=C\\c2ccc([N+](=O)[O-])cc2)C1=O", "Potency": "inconclusive: 29.1 µM [inhibitor, single point]"},
      {"smiles": "CCOC(=O)[C@@H]1[C@H]2COc3ccc(Br)cc3[C@@H]2N2C(=O)N(c3ccc(F)cc3)C(=O)[C@]12C", "activity change, negative = growth inhibition": "inactive: -7.5%"},
      {"smiles": "COc1ccc(Cl)c(Cn2c(NCC(C)O)nc3c2c(=O)n(C)c(=O)n3C)c1", "note": "(configuration not stated)", "Potency": "inconclusive: 14.6 µM [inhibitor, partial curve]"},
      {"smiles": "O=[N+]([O-])c1ccc(Nc2nc(N3CCOCC3)nc(N3CCOCC3)n2)cc1", "Potency": "inconclusive: 13 µM [inhibitor, partial curve]"},
      {"smiles": "CNc1nc(-c2cccc(C#N)c2)nc2ccccc12", "Potency": "inconclusive: 16.4 µM [inhibitor, single point]"},
      {"smiles": "CCOc1cccc2cc(C(=O)NCc3ccc(F)cc3)c(=N)oc12", "Potency": "inconclusive: 23.1 µM [inhibitor, single point]"},
      {"smiles": "COc1ccc(C(=O)N2CCN(c3ccc(NC(=O)c4cccnc4)cc3)CC2)cc1", "Potency": "inconclusive: 10.3 µM [inhibitor, single point]"},
      {"smiles": "Cc1c(NS(=O)(=O)c2cc(Br)cc3c2N(C(=O)C2CC2)CC3)c(=O)n(-c2ccccc2)n1C", "activity change, negative = growth inhibition": "inactive: -10.8%"},
      {"smiles": "CC(C)=CC(=O)OCc1csc(CC(=O)Nc2ccccc2C)n1", "activity change, negative = growth inhibition": "inactive: -21.6%"},
      {"smiles": "CCOc1cc(C)c(S(=O)(=O)NC2CCCCC2)cc1C", "Potency": "inconclusive: 16.4 µM [inhibitor, partial curve]"},
      {"smiles": "COCCNC(=O)CSc1nc2cc3c(cc2c(=O)n1Cc1ccc(C(=O)NCCc2ccc(OC)c(OC)c2)cc1)OCO3", "Potency": "active: 8.2 µM"},
      {"smiles": "Cc1cc(=O)[nH]c(N/N=C/c2ccc(N(C)C)cc2)n1", "activity change, negative = growth inhibition": "inactive: -24.5%"},
      {"smiles": "CC1C/C(=N\\Nc2ccc(S(N)(=O)=O)cc2[N+](=O)[O-])CC(C)(C)C1", "note": "(configuration not stated)", "Potency": "inconclusive: 16.4 µM [inhibitor, single point]"}
    ]}
  ]
}
